Assay results: PubChem BioAssay AID485344 (National Center for Advancing Translational Sciences (NCATS), 2010)
About 6,900 (2%) of roughly 340,000 compounds were called active. Cut-off read from the data, not from the text of the source: active = inhibition above about 30%; inactive = below that, where a call was filed. This is a selection; strong and weak results do not stand in their true shares. Entries without a call were filed so in the source.

biological target: D(2) dopamine receptor (Homo sapiens) (UniProt P14416); assay: HTS Assay for Allosteric Antagonists of the Human D2 Dopamine Receptor: Primary Screen for Antagonists; conditions: HEK293 TREx D2 cells, calcium flux, dopamine EC80; at 10 µM; stronger effect = higher value; note: 0% is about no effect
Summary of the method: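 Calcium flux kinetic readout in an inducible HEK293 TREx D2 line plated overnight at 30 C. After 180 s compound exposure, an EC80 dopamine challenge follows with another 180 s kinetic read to detect antagonism.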

Chain of UniProt P14416 (P14416 whole entry, looked up): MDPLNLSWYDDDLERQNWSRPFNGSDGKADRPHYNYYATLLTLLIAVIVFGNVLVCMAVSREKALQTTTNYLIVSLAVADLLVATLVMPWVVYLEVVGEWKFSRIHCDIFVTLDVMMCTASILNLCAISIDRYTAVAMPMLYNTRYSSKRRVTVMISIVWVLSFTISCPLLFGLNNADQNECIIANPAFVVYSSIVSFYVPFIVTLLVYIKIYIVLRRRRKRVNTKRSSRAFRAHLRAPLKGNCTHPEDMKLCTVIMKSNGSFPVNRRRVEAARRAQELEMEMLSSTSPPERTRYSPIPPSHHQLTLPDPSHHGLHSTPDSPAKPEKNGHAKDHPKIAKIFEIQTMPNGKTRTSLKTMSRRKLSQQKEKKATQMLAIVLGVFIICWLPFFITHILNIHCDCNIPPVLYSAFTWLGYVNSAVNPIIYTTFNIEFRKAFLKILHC

SMILES	inhibition
COc1ccccc1-c1cc2nc(C)c(CCC(=O)O)c(C)n2n1	0.0241%
COc1ccccc1NC(=O)Cn1c(=O)n(CCC(=O)NCC2CCCO2)c(=O)c2cc(OC)c(OC)cc21 (stereo unspecified)	13.9%
Cc1ccc2nc(-c3ccc(O)cc3)c(Nc3ccc(Cl)cc3)n2c1	14.9%
CCC(=O)N1CCc2cc(S(=O)(=O)NCCC(=O)Nc3cc(C)ccc3OC)ccc21	6.17%
Cc1ccc(-c2nn(-c3ccc(F)cc3)c3c2cnc2cc(F)c(F)cc23)cc1	1.08%
CCCN(CCC)C(=O)Cn1c(=O)n(-c2ccc(Cl)cc2)c(=O)c2c3c(sc21)CCCCC3	5.73%
COc1cc(NC(=O)c2cc3c(s2)-c2ccccc2OC3)cc(OC)c1OC	-18.2%
CCCc1cc(=O)[nH]c(SCC(=O)N2CCN(c3ccccc3OC)CC2)n1	-6.95%
CC(=O)c1ccc(Nc2nc3c(S(=O)(=O)c4ccccc4)nnn3c3ccc(Cl)cc23)cc1	-2.72%
Cc1oc(-c2cccs2)nc1CN1CCC(c2ccccc2)CC1	active: 83.3%
Cc1ccc(NC(=O)Cn2c(=O)c3ccccc3n3nncc23)cc1	-17.6%
COc1cccc(C(=O)N(c2ccc(OC)cc2OC)C2C=CS(=O)(=O)C2)c1 (stereo unspecified)	active: 30.5%
Cc1ccc(NC(=O)c2cc([N+](=O)[O-])ccc2NCc2cccnc2)cc1	active: 33.3%
O=C(Nc1cccc(F)c1)Nc1ccccn1	active: 87%
Cc1cc(C)nc(/N=C(\N)Nc2ccc(OCCC(C)C)cc2)n1	active: 51.9%
Cc1ccc(C)c(N2CCN(C(=O)CCc3nnc4n(CC(C)C)c(=O)c5ccccc5n34)CC2)c1	2.43%
CCn1cc(C(=O)N2CCN(c3cccc(Cl)c3)CC2)c2cc(OC)c(OC)cc2c1=O	3.75%
CCOc1ccc(CNC(=O)c2cnc3sc(N4CCOCC4)nn3c2=O)cc1	-8.41%
CCS(=O)(=O)N1CCc2cc(C(=O)Nc3ccc(C(=O)OC)cc3)ccc21	-3.5%
Cc1ccc(CN2CCc3nc(Nc4ccc5c(c4)OCCO5)ncc3C2)cc1	0.176%
CC1=C(c2ccc(C(C)C)cc2)S(=O)(=O)NC1=NCCCN1CCN(c2ccccc2F)CC1	11.1%
Cc1ccc(-n2c3c(cc(-c4nc(-c5ccc(Cl)cc5)cs4)c2=O)C(=O)CC(C)(C)C3)cc1C	13.7%
C#CCSc1nc(-c2ccccc2)cc(-c2ccccc2)c1C#N	-9.08%
CN(C)CCC=C1c2ccccc2CCc2ccccc21	active: 63.6%
O=S(=O)(c1ccc(-c2cc(C(F)(F)F)on2)s1)N1CCN(c2ccc(F)cc2)CC1	7.57%
COc1cc(NS(=O)(=O)c2cc3c(cc2C)N(C)CCO3)cc(OC)c1OC	9.3%
